Assay results from article PMC4336329 (PLoS ONE, 2015).
The campaign covered roughly 310,000 compounds. About 2,200 (0.71%) showed an effect of 50% or more. The effect is printed as a negative number. The list shows a part of the results.

The compounds below were run against human ether-à-go-go-related gene (hERG) potassium channel (human, UniProt Q12809) (assay: primary screen, population patch clamp on CHO cells stably expressing hERG).
human ether-à-go-go-related gene (hERG) potassium channel, sequence (Q12809 whole entry, looked up): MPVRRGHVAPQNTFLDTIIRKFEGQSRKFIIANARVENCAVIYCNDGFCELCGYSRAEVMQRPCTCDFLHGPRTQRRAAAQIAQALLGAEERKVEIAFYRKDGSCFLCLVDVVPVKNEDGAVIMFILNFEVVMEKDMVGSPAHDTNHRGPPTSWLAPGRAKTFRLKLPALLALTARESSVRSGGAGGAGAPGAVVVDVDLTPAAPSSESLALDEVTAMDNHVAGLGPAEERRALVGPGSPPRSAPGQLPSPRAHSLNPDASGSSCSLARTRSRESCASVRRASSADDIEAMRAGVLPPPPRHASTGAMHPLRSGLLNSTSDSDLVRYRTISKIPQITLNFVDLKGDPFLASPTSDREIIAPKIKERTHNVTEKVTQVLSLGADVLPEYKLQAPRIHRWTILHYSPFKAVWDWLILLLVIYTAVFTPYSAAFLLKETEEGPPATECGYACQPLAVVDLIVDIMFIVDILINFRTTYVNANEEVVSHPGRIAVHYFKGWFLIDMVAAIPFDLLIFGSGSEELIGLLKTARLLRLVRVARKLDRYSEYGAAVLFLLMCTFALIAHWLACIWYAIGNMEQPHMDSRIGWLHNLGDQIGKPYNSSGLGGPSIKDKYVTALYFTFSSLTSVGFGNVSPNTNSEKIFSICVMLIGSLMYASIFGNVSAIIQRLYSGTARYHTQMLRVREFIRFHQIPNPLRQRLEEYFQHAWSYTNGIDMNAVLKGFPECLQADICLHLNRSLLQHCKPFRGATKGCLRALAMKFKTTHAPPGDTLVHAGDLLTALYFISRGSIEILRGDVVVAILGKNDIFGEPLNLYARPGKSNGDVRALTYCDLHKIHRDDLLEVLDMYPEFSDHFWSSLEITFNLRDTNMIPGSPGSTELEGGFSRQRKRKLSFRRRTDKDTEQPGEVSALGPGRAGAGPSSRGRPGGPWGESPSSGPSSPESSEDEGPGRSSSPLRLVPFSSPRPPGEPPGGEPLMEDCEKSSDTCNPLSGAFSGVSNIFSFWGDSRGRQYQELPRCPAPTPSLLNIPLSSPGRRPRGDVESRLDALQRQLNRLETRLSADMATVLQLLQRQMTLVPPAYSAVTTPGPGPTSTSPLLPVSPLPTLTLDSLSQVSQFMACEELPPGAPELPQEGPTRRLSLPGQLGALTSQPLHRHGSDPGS

Structure (SMILES) | hERG current change (%, negative = inhibition) at 1uM [%]
C=CCOc1cccc(C(=O)N2CCCC(Nc3ccc4c(c3)OCCO4)C2)c1 (centres unmarked) | -1.27
O=C(NNC(=O)c1cc2c(s1)CCCC2)c1ccccc1 | 5.99
Cc1ccc(S(=O)(=O)N2CCOCC2)cc1C(=O)NCC1CCCCC1 | 2.14
COc1ccc(C(C)NC(=S)NCc2ccc(F)cc2)cc1 (centres unmarked) | 12.4
CCOc1ccc(-n2c(O)c(/C=N/NC(=O)C3COc4ccccc4O3)c3ccccc3c2=O)cc1 (centres unmarked) | 8.03
Cc1cccc(NC(=S)N(CCN(C)C)Cc2cccs2)c1 | 5.82
CC(C)(C)SCCNS(=O)(=O)c1ccc2ccccc2c1 | -1.67
O=C(COc1ccccc1Cl)NNC(=O)c1ccc(-n2cncn2)c([N+](=O)[O-])c1 | 19
C/C(=N\NC(=O)COc1ccc(C(C)(C)C)cc1)c1ccccc1 | 10.2
c1ccc2c(c1)Cc1cc(CN3CCOCC3)ccc1-2 | 12.7
Cc1ccc(Nc2c([N+](=O)[O-])c(=O)n(C)c3ccccc23)cc1C | 1.7
Cc1cc(C)c(NC(=O)CN(C)CC(=O)N(C)CC(=O)Nc2c(Cl)cccc2Cl)c(C)c1 | 11.1
O=C(NCc1ccccn1)C1CCCN(S(=O)(=O)c2cccc3nsnc23)C1 (centres unmarked) | 9.24
O=[N+]([O-])c1ccc(C2C3C(c4ccccc4)=NC4(CCCC4)N32)cc1 (centres unmarked) | -0.499
CCOc1c(Cl)cc(Cl)cc1CNCCNCCO.Cl | 11.2
COC(=O)c1ccccc1N(C)S(C)(=O)=O | 10.8
Cc1cccc(CSCCNC(=O)CN(c2cc(C)cc(C)c2)S(C)(=O)=O)c1 | 5.45
CC1CCCCN1S(=O)(=O)c1cccc2cccnc12 (centres unmarked) | -0.0239
O=C(Nc1ccc(CN2CCS(=O)(=O)CC2)cc1)c1ccc(F)cc1 | 8.38
Cc1cccc(C)c1N(C(=O)c1ccco1)C(C(=O)NC1CCCC1)c1ccncc1 (centres unmarked) | 4.89
COc1cc2c(cc1OC)C(c1ccccc1)=NCC2 | 2.79
CN(c1ccc(OCC(=O)OCc2nnc(-c3ccccc3)o2)cc1)S(=O)(=O)c1ccc(Cl)cc1 | 3.12

Structure (SMILES) | hERG current change (%, negative = inhibition) at 1uM [%]
c1ccc(Cn2c(CNc3nc4ccccc4n3CCN3CCCCC3)nc3ccccc32)cc1 | -5.91
CCOc1ccc(NC(=O)CN2CCN(S(=O)(=O)c3ccc(Cl)cc3)CC2)cc1 | 10.8
CCc1c(C)nc2c(OC)cccc2c1Cl | 0.737
CCOC(=O)C(NC(=O)OC(C)C)(Nc1nccs1)C(F)(F)F (centres unmarked) | 9.29
O=C(NC1CCCc2ccccc21)C1CCN(S(=O)(=O)c2cccc(C(F)(F)F)c2)CC1 (centres unmarked) | 4.94
CCOC(=O)CN1CC23C=CC(O2)C(C(=O)Nc2ccc(C(C)=O)cc2)C3C1=O (centres unmarked) | 12.1
CCCOC(=O)c1ccc(NC(=O)c2ccccc2OC)cc1 | 11.2
O=C(c1ccc(Cl)c([N+](=O)[O-])c1)N(Cc1ccc(F)cc1)C1CCS(=O)(=O)C1 (centres unmarked) | 8.83
CCN1CCN(c2ccc(S(=O)(=O)N3CCOCC3)cc2NC(=O)c2ccc(C(F)(F)F)cc2)CC1 | 9.9
O=C(Nc1ccc(S(=O)(=O)Nc2ncccn2)cc1)c1cccc(S(=O)(=O)N2CCOCC2)c1 | 13.8
O=C(c1cc(COc2c(F)cccc2F)on1)N1CCC(c2ccccc2Cl)C1 (centres unmarked) | 10.5
CC1(OCON)CCCc2ccccc21 (centres unmarked) | 10.3
O=[N+]([O-])c1c(NCCO)cc(N2CCCCCC2)c2nonc12 | 16.9
O=C(CN1CCc2ccccc2C1)Nc1ccccc1Cl | -1.54
CCOC(=O)c1c(NC(=O)CSc2nc3ccccc3c(=O)n2-c2ccccc2)sc(C(C)=O)c1C | 6.03
COc1cccc(NC2=C(C#N)C(=O)NC(c3cccc(OC)c3O)S2)c1 (centres unmarked) | 11.2
Cc1cc(C(C)(C)C)cc(C)c1CC1=NCCN1.Cl | 6.64
COc1ccc(S(=O)(=O)N2CC(C)N(C(=O)N(C)C)C2C(C)C)cc1 (centres unmarked) | 15.9
COc1ccc(C(=O)COC(=O)CNC(=O)c2ccc(OC)cc2)cc1 | -31
COc1cc(Br)cc(/C=C/c2ccc3cccc(O)c3n2)c1OC | 9.98
c1csc(-c2csc3nc(CN4CCOCC4)nc(NCc4ccc5c(c4)OCO5)c23)c1 | 3.47
Cc1nc(N2CCN(S(=O)(=O)c3ccc(F)cc3)CC2)c2c(C)c(C)sc2n1 | 2.08
